# Reference: the supplement of paper PMC10369915
# The list shows a part of the results. Rule as the data show it: active = 3.2 or more and inactive = the rest. The signal is at background level for most entries.
# Molecular target: SHP2 C-SH2 domain E139D
# Test: enrichment score (SH2-bound / input frequency) (ratio); bacterial display of known human phosphotyrosine sites (pTyr-Var adds point mutants) read by sequencing; higher = stronger binding; tyrosines were phosphorylated by kinases first
# Details: peptide library: pTyr-Var
# 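Also: displayed peptides selected on beads carrying the immobilized SH2 domain, with library peptides lacking any tyrosine serving as negative controls.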
row,Binder,enrichment score
1,TVLEPYTDPYY [ZC3H18_Y367_A368T],inactive: 0.4
2,WPLKWYVPECI [ZAP70_Y506_A507V],inactive: 2.24
3,DVQNEYDSNHC [ZFYVE16_Y36_A35E],inactive: 0.452
4,PYADPYYDYEI [ZC3H18_Y371],inactive: 0.908
5,SYSGEYGSGGG [ZG16_Y30_G32S],inactive: 0.48
6,SGEKPYKCSEC [ZNF543_Y283],inactive: 0.458
7,MSSHHYDYKKY [ZNF445_Y428],inactive: 0.618
8,PYTDPYYDYEI [ZC3H18_Y371_A368T],inactive: 0.615
9,YTDPYYDYEIE [ZC3H18_Y372_A368T],inactive: 0.819
10,SQINLYQDVML [ZNF806_Y33_A28S],inactive: 0.966
11,VMLENYSNLLS [ZFP69_Y109_V113L],inactive: 1.31
12,LLTKVYVVEGS [ZMPSTE24_Y253_P248L],inactive: 1.24
13,AERKLYRNVML [ZNF569_Y33_Q29E],inactive: 1.13
14,PLTKVYVVEGS [ZMPSTE24_Y253],inactive: 0.453
15,AQRKLYRNVML [ZNF569_Y33],inactive: 0.919
16,GKTFTYHSVFF [ZNF80_Y200_R201H],inactive: 1.33
17,KACKHYLTKRT [ZBTB5_Y118_T121K],active: 4.46
18,CPPELYALMSD [ZAP70_Y569],inactive: 0.984
19,QISSNYDDAMQ [ZNF281_Y531],inactive: 0.794

# Molecular target: SHP2 C-SH2 domain wild-type
# Test: as above
# Details: peptide library: pTyr-Var
row,Binder,enrichment score
1,TVLEPYTDPYY [ZC3H18_Y367_A368T],inactive: 0.476
2,WPLKWYVPECI [ZAP70_Y506_A507V],inactive: 1.76
3,DVQNEYDSNHC [ZFYVE16_Y36_A35E],inactive: 0.404
4,PYADPYYDYEI [ZC3H18_Y371],inactive: 0.986
5,SYSGEYGSGGG [ZG16_Y30_G32S],inactive: 0.447
6,SGEKPYKCSEC [ZNF543_Y283],inactive: 0.472
7,MSSHHYDYKKY [ZNF445_Y428],inactive: 0.537
8,PYTDPYYDYEI [ZC3H18_Y371_A368T],inactive: 0.685
9,YTDPYYDYEIE [ZC3H18_Y372_A368T],inactive: 0.851
10,SQINLYQDVML [ZNF806_Y33_A28S],inactive: 0.884
11,VMLENYSNLLS [ZFP69_Y109_V113L],inactive: 1.21
12,LLTKVYVVEGS [ZMPSTE24_Y253_P248L],inactive: 1.04
13,AERKLYRNVML [ZNF569_Y33_Q29E],inactive: 0.803
14,PLTKVYVVEGS [ZMPSTE24_Y253],inactive: 0.39
15,AQRKLYRNVML [ZNF569_Y33],inactive: 0.615
16,GKTFTYHSVFF [ZNF80_Y200_R201H],inactive: 1.63
17,KACKHYLTKRT [ZBTB5_Y118_T121K],active: 4.03
18,CPPELYALMSD [ZAP70_Y569],inactive: 0.985
19,QISSNYDDAMQ [ZNF281_Y531],inactive: 0.7

# Molecular target: SHP2 N-SH2 domain L43F
# Test: as above
# Details: peptide library: pTyr-Var
row,Binder,enrichment score
1,TVLEPYTDPYY [ZC3H18_Y367_A368T],inactive: 0.53
2,WPLKWYVPECI [ZAP70_Y506_A507V],inactive: 1.85
3,DVQNEYDSNHC [ZFYVE16_Y36_A35E],inactive: 0.407
4,PYADPYYDYEI [ZC3H18_Y371],inactive: 0.628
5,SYSGEYGSGGG [ZG16_Y30_G32S],inactive: 0.534
6,SGEKPYKCSEC [ZNF543_Y283],inactive: 0.598
7,MSSHHYDYKKY [ZNF445_Y428],inactive: 0.488
8,PYTDPYYDYEI [ZC3H18_Y371_A368T],inactive: 0.7
9,YTDPYYDYEIE [ZC3H18_Y372_A368T],inactive: 0.97
10,SQINLYQDVML [ZNF806_Y33_A28S],inactive: 0.86
11,VMLENYSNLLS [ZFP69_Y109_V113L],inactive: 1.15
12,LLTKVYVVEGS [ZMPSTE24_Y253_P248L],inactive: 0.906
13,AERKLYRNVML [ZNF569_Y33_Q29E],inactive: 0.985
14,PLTKVYVVEGS [ZMPSTE24_Y253],inactive: 0.555
15,AQRKLYRNVML [ZNF569_Y33],inactive: 0.789
16,GKTFTYHSVFF [ZNF80_Y200_R201H],inactive: 1.53
17,KACKHYLTKRT [ZBTB5_Y118_T121K],active: 3.87
18,CPPELYALMSD [ZAP70_Y569],inactive: 1.55
19,QISSNYDDAMQ [ZNF281_Y531],inactive: 0.666

# Molecular target: SHP2 N-SH2 domain T42A
# Test: as above
# Details: peptide library: pTyr-Var
row,Binder,enrichment score
1,TVLEPYTDPYY [ZC3H18_Y367_A368T],inactive: 0.428
2,WPLKWYVPECI [ZAP70_Y506_A507V],inactive: 1.71
3,DVQNEYDSNHC [ZFYVE16_Y36_A35E],inactive: 0.369
4,PYADPYYDYEI [ZC3H18_Y371],inactive: 0.696
5,SYSGEYGSGGG [ZG16_Y30_G32S],inactive: 0.496
6,SGEKPYKCSEC [ZNF543_Y283],inactive: 0.626
7,MSSHHYDYKKY [ZNF445_Y428],inactive: 0.573
8,PYTDPYYDYEI [ZC3H18_Y371_A368T],inactive: 0.657
9,YTDPYYDYEIE [ZC3H18_Y372_A368T],inactive: 0.76
10,SQINLYQDVML [ZNF806_Y33_A28S],inactive: 0.862
11,VMLENYSNLLS [ZFP69_Y109_V113L],inactive: 1.2
12,LLTKVYVVEGS [ZMPSTE24_Y253_P248L],inactive: 0.907
13,AERKLYRNVML [ZNF569_Y33_Q29E],inactive: 0.706
14,PLTKVYVVEGS [ZMPSTE24_Y253],inactive: 0.436
15,AQRKLYRNVML [ZNF569_Y33],inactive: 0.649
16,GKTFTYHSVFF [ZNF80_Y200_R201H],inactive: 2.9
17,KACKHYLTKRT [ZBTB5_Y118_T121K],active: 3.59
18,CPPELYALMSD [ZAP70_Y569],inactive: 1.71
19,QISSNYDDAMQ [ZNF281_Y531],inactive: 0.724

# Molecular target: SHP2 N-SH2 domain T52S
# Test: as above
# Details: peptide library: pTyr-Var
row,Binder,enrichment score
1,TVLEPYTDPYY [ZC3H18_Y367_A368T],inactive: 0.407
2,WPLKWYVPECI [ZAP70_Y506_A507V],inactive: 1.54
3,DVQNEYDSNHC [ZFYVE16_Y36_A35E],inactive: 0.457
4,PYADPYYDYEI [ZC3H18_Y371],inactive: 1.01
5,SYSGEYGSGGG [ZG16_Y30_G32S],inactive: 0.429
6,SGEKPYKCSEC [ZNF543_Y283],inactive: 0.685
7,MSSHHYDYKKY [ZNF445_Y428],inactive: 0.66
8,PYTDPYYDYEI [ZC3H18_Y371_A368T],inactive: 0.839
9,YTDPYYDYEIE [ZC3H18_Y372_A368T],inactive: 0.704
10,SQINLYQDVML [ZNF806_Y33_A28S],inactive: 1.04
11,VMLENYSNLLS [ZFP69_Y109_V113L],inactive: 1.11
12,LLTKVYVVEGS [ZMPSTE24_Y253_P248L],inactive: 0.813
13,AERKLYRNVML [ZNF569_Y33_Q29E],inactive: 0.894
14,PLTKVYVVEGS [ZMPSTE24_Y253],inactive: 0.71
15,AQRKLYRNVML [ZNF569_Y33],inactive: 0.709
16,GKTFTYHSVFF [ZNF80_Y200_R201H],inactive: 1.91
17,KACKHYLTKRT [ZBTB5_Y118_T121K],active: 4.22
18,CPPELYALMSD [ZAP70_Y569],inactive: 1.5
19,QISSNYDDAMQ [ZNF281_Y531],inactive: 0.596

# Molecular target: SHP2 N-SH2 domain wild-type
# Test: as above
# Details: peptide library: pTyr-Var
row,Binder,enrichment score
1,TVLEPYTDPYY [ZC3H18_Y367_A368T],inactive: 0.494
2,WPLKWYVPECI [ZAP70_Y506_A507V],inactive: 2.16
3,DVQNEYDSNHC [ZFYVE16_Y36_A35E],inactive: 0.49
4,PYADPYYDYEI [ZC3H18_Y371],inactive: 0.795
5,SYSGEYGSGGG [ZG16_Y30_G32S],inactive: 0.661
6,SGEKPYKCSEC [ZNF543_Y283],inactive: 0.456
7,MSSHHYDYKKY [ZNF445_Y428],inactive: 0.56
8,PYTDPYYDYEI [ZC3H18_Y371_A368T],inactive: 0.683
9,YTDPYYDYEIE [ZC3H18_Y372_A368T],inactive: 0.817
10,SQINLYQDVML [ZNF806_Y33_A28S],inactive: 1.03
11,VMLENYSNLLS [ZFP69_Y109_V113L],inactive: 0.964
12,LLTKVYVVEGS [ZMPSTE24_Y253_P248L],inactive: 1.2
13,AERKLYRNVML [ZNF569_Y33_Q29E],inactive: 0.764
14,PLTKVYVVEGS [ZMPSTE24_Y253],inactive: 0.512
15,AQRKLYRNVML [ZNF569_Y33],inactive: 0.785
16,GKTFTYHSVFF [ZNF80_Y200_R201H],inactive: 1.62
17,KACKHYLTKRT [ZBTB5_Y118_T121K],active: 3.25
18,CPPELYALMSD [ZAP70_Y569],inactive: 2.37
19,QISSNYDDAMQ [ZNF281_Y531],inactive: 0.74
